This sample is rich in variants without activity.
B1: tRNA (parent)
chain: CUCUCGGUAGCCAAGUUGGUUUAAGGCGCAAGACUUUAAUUUAUCACUACGAAAUCUUGAGAUCGGGCGUUCGACUCGCCCCCGGGAGAUUUUUUCCUCGAGCAA

Variants of: B1
Experiment: nonsense suppression (GFP-seq) (ratio to wild type); higher = more function; SUP4oc tRNA, yeast GFP reporter sort-seq
Method in brief: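 To measure nonsense suppression, tRNA variants from a library carrying ~3% random mutations were integrated into the yeast genome alongside RFP and a GFP ochre reporter under galactose control. Growth took place in raffinose/galactose medium supplemented with 80 mg/L adenine, followed by sorting into GFP/RFP bins and Illumina sequencing of each bin (phred ≥30). For each variant with ≥100 reads and ≥30 cells, the bin median GFP/RFP values were weighted by its estimated cell share per bin and referenced to the unmutated parent tRNA.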

U70G C83G and U70G G78C cannot be ordered by nonsense suppression: no more than 0.026 for the first, no more than 0.026 for the second.

U70G G88A A89U and U70G U71A cannot be ordered by nonsense suppression: no more than 0.026 for the first, no more than 0.026 for the second.

U71A A89C and U71A A89G cannot be ordered by nonsense suppression: no more than 0.026 for the first, no more than 0.026 for the second.

U71A C77A G84C and U71A C83G cannot be ordered by nonsense suppression: no more than 0.026 for the first, no more than 0.026 for the second.

U71A G86A and U71C C72G cannot be ordered by nonsense suppression: no more than 0.026 for the first, no more than 0.026 for the second.

U71C C82A and U71C C82U G84C cannot be ordered by nonsense suppression: no more than 0.026 for the first, no more than 0.026 for the second.

U71C G84A and U71C G86U cannot be ordered by nonsense suppression: no more than 0.026 for the first, no more than 0.026 for the second.

U71C G88A and U71C U76A cannot be ordered by nonsense suppression: no more than 0.026 for the first, no more than 0.026 for the second.

U71G A89C and U71G C72U cannot be ordered by nonsense suppression: no more than 0.026 for the first, no more than 0.026 for the second.

U71G C77A C79U A87G and U71G C79G cannot be ordered by nonsense suppression: no more than 0.026 for the first, no more than 0.026 for the second.

U71G C82G and U71G G73A cannot be ordered by nonsense suppression: no more than 0.026 for the first, no more than 0.026 for the second.

U71G G73A G84C and U71G U76C G84U cannot be ordered by nonsense suppression: no more than 0.026 for the first, no more than 0.026 for the second.

C72A and C72A A87U cannot be ordered by nonsense suppression: no more than 0.026 for the first, no more than 0.026 for the second.

C72A C81A C83A and C72A G85C cannot be ordered by nonsense suppression: no more than 0.026 for the first, no more than 0.026 for the second.

C72A G86C and C72G cannot be ordered by nonsense suppression: no more than 0.026 for the first, no more than 0.026 for the second.

C72G A74G and C72G A89G cannot be ordered by nonsense suppression: no more than 0.026 for the first, no more than 0.026 for the second.

C72G C79G and C72G C83G A87C cannot be ordered by nonsense suppression: no more than 0.026 for the first, no more than 0.026 for the second.

C72G G73U C75G and C72G G84C G86A cannot be ordered by nonsense suppression: no more than 0.026 for the first, no more than 0.026 for the second.

C72G G86C and C72G G88U cannot be ordered by nonsense suppression: no more than 0.026 for the first, no more than 0.026 for the second.

C72U and C72U A74U cannot be ordered by nonsense suppression: no more than 0.026 for the first, no more than 0.026 for the second.

C72U C75G and C72U C81A cannot be ordered by nonsense suppression: no more than 0.026 for the first, no more than 0.026 for the second.

C72U C82G and C72U G73C C79G cannot be ordered by nonsense suppression: no more than 0.026 for the first, no more than 0.026 for the second.

First: C72U G73C U76G
Second: C72U G85U
The nonsense suppression of the first is lower: no more than 0.026 for the first, 0.0294 for the second.

First: G73A
Second: G73A A89C
The nonsense suppression of the first is higher: 1.12 for the first, 0.0768 for the second.

G73A C80A and G73A C80G cannot be ordered by nonsense suppression: no more than 0.026 for the first, no more than 0.026 for the second.

Compared with G73A C83G, G73A G84A is higher in nonsense suppression: no more than 0.026 for the first, 0.191 for the second.

First: G73A G84C
Second: G73A G86C
The nonsense suppression of the first is higher: 0.361 for the first, no more than 0.026 for the second.

G73A G86U and G73C cannot be ordered by nonsense suppression: no more than 0.026 for the first, no more than 0.026 for the second.

G73C A87U and G73C C75U cannot be ordered by nonsense suppression: no more than 0.026 for the first, no more than 0.026 for the second.

G73C C77G and G73C G84U cannot be ordered by nonsense suppression: no more than 0.026 for the first, no more than 0.026 for the second.

G73C G85U and G73C G88C cannot be ordered by nonsense suppression: no more than 0.026 for the first, no more than 0.026 for the second.

G73U and G73U A87G cannot be ordered by nonsense suppression: no more than 0.026 for the first, no more than 0.026 for the second.

G73U A89G and G73U C75G cannot be ordered by nonsense suppression: no more than 0.026 for the first, no more than 0.026 for the second.

First: G73U C75U
Second: G73U C81U
The nonsense suppression of the first is lower: no more than 0.026 for the first, 0.0263 for the second.

G73U U76C and G73U U76G cannot be ordered by nonsense suppression: no more than 0.026 for the first, no more than 0.026 for the second.

A74C and A74C C77G cannot be ordered by nonsense suppression: no more than 0.026 for the first, no more than 0.026 for the second.

Compared with A74C C79A A89C, A74C C79U is higher in nonsense suppression: no more than 0.026 for the first, 0.037 for the second.

A74C C81U and A74C C81U G85C cannot be ordered by nonsense suppression: no more than 0.026 for the first, no more than 0.026 for the second.

A74C C83G A87G and A74C C83U cannot be ordered by nonsense suppression: no more than 0.026 for the first, no more than 0.026 for the second.

A74C G78C and A74C G84U cannot be ordered by nonsense suppression: no more than 0.026 for the first, no more than 0.026 for the second.

A74G and A74G A87U cannot be ordered by nonsense suppression: no more than 0.026 for the first, no more than 0.026 for the second.

A74G C75U and A74G C79U cannot be ordered by nonsense suppression: no more than 0.026 for the first, no more than 0.026 for the second.

A74G C81A and A74G C81G cannot be ordered by nonsense suppression: no more than 0.026 for the first, no more than 0.026 for the second.

Going from A74G G78A to A74G G78C, the nonsense suppression rises from no more than 0.026 to 0.0343.

A74G G78C C80G and A74G G78U C82G cannot be ordered by nonsense suppression: no more than 0.026 for the first, no more than 0.026 for the second.

A74G G85U and A74G G88A cannot be ordered by nonsense suppression: no more than 0.026 for the first, no more than 0.026 for the second.

A74G U76A and A74G U76C cannot be ordered by nonsense suppression: no more than 0.026 for the first, no more than 0.026 for the second.

A74U and A74U A87C G88A cannot be ordered by nonsense suppression: no more than 0.026 for the first, no more than 0.026 for the second.

First: A74U A87U
Second: A74U C79U
The nonsense suppression of the first is lower: no more than 0.026 for the first, 0.0357 for the second.

A74U C80G G84C and A74U C81A cannot be ordered by nonsense suppression: no more than 0.026 for the first, no more than 0.026 for the second.

A74U C81G and A74U C82G cannot be ordered by nonsense suppression: no more than 0.026 for the first, no more than 0.026 for the second.

A74U G85U and A74U G86C cannot be ordered by nonsense suppression: no more than 0.026 for the first, no more than 0.026 for the second.

Compared with A74U G88A, C75A is higher in nonsense suppression: no more than 0.026 for the first, 0.996 for the second.

First: C75A A87G
Second: C75A A89C
The nonsense suppression of the first is higher: 0.839 for the first, no more than 0.026 for the second.

C75A A89U and C75A C77U cannot be ordered by nonsense suppression: no more than 0.026 for the first, no more than 0.026 for the second.

C75A C79A and C75A C81U G86A cannot be ordered by nonsense suppression: no more than 0.026 for the first, no more than 0.026 for the second.

First: C75A C82G
Second: C75A G78A
The nonsense suppression of the first is lower: no more than 0.026 for the first, 0.698 for the second.

C75A G84A and C75A G88C cannot be ordered by nonsense suppression: no more than 0.026 for the first, no more than 0.026 for the second.

Compared with C75G, C75G C82A is lower in nonsense suppression: 1.04 for the first, no more than 0.026 for the second.

C75G C83A G84C and C75G G78C C83A cannot be ordered by nonsense suppression: no more than 0.026 for the first, no more than 0.026 for the second.

C75G G84C and C75G G86A cannot be ordered by nonsense suppression: no more than 0.026 for the first, no more than 0.026 for the second.

First: C75U
Second: C75U C82A
The nonsense suppression of the first is higher: 0.972 for the first, no more than 0.026 for the second.

Compared with C75U C83A, C75U G78A is higher in nonsense suppression: no more than 0.026 for the first, 0.9 for the second.

U76A and U76A A89U cannot be ordered by nonsense suppression: no more than 0.026 for the first, no more than 0.026 for the second.

Compared with U76A C77U, U76A C80U is higher in nonsense suppression: no more than 0.026 for the first, 0.0419 for the second.

U76A C81A and U76A C82A A89C cannot be ordered by nonsense suppression: no more than 0.026 for the first, no more than 0.026 for the second.

U76A G78U and U76A G86A cannot be ordered by nonsense suppression: no more than 0.026 for the first, no more than 0.026 for the second.

First: U76A G88U
Second: U76C
The nonsense suppression of the first is lower: no more than 0.026 for the first, 1 for the second.

First: U76C C77A
Second: U76C C81U
The nonsense suppression of the first is lower: no more than 0.026 for the first, 0.0575 for the second.
